As usually defined, the % Inhibition is the drop in the measured response relative to a control, in per cent.

Each structure is given as a SMILES string. The campaign covered roughly 150,000 compounds. About 540 (0.36%) showed an effect of 50% or more. This is one part of the list.

The subject of this test is Plasmodium falciparum. Nature of the test: Primary screen in NF54 nanoGlo assay, in single point, at 2uM, 72h; a lower Z score goes with more inhibition. The test is classed as functional, Erythrocyte. Particulars: timepoint 72 hour.
As to `CCN1CCN(CCOc2ccccc2CN(C)Cc2cccc3cnccc23)CC1`, the “% Inhibition” value turned out to be 7% and the Z score is on record as -1.54.

Turning to `Cc1nc(C(C)N(C)C(=O)CCc2ccnn2C)c(C)s1` (stereo unspecified), the “% Inhibition” value is given as -1% and the Z score was found to be 0.19.

For the compound `COc1cccc2[nH]cc(CC(=O)Nc3nc4ccccc4n3C3CCCC3)c12`, the “% Inhibition” value is listed as -8% and the Z score came out at 1.31.

For the compound `CN1CCC[C@H](CN2CCN(Cc3cc4n(n3)CCCNC4)CC2)C1`, the “% Inhibition” value is reported as 19% and the Z score is recorded as -4.12.

As for `Cn1ncc2cc(-c3ccnc4[nH]ccc34)ccc21`, the “% Inhibition” value is -7% and the Z score was 1.5.

`O=C(N[C@H](CO)CC1CCCCC1)c1cccc(-c2ncnc3[nH]ccc23)c1`: the “% Inhibition” value is given as -8% and the Z score stood at 1.5.

For `COc1ccccc1Nc1ncc(CN2CCc3c(cnc(C)c3C#N)C2)s1`, the “% Inhibition” value was -5% and the Z score is reported as 0.93.

Consider `NC(=O)c1ccc(OCCCN2CCCN(C3CCCC3)CC2)cc1`, for which the “% Inhibition” value was found to be 5% and the Z score is recorded as -1.04.

Regarding `CCC(CC)(CNc1nc(N)c2ccccc2n1)S(C)(=O)=O`, the “% Inhibition” value was 0% and the Z score is reported as 0.02.

Take `Cc1cncc(Nc2cccc3ncccc23)n1`: the “% Inhibition” value is -5% and the Z score stood at 0.83.

Turning to `OCc1cnc(NCCCN2CCN(Cc3ccccc3)CC2)cn1`, the “% Inhibition” value is reported as -4% and the Z score came to 0.71.

`Cc1ccc(NCCCNC(=O)c2ccc3c(c2)[nH]c(=O)n3[C@H]2CC[C@H](O)CC2)nc1`: the “% Inhibition” value is 6% and the Z score was -0.97.

Regarding `COc1ccc2ccc(N3CCC(NCCO)CC3)nc2c1`, the “% Inhibition” value is reported as -2% and the Z score was found to be 0.52.

With `Cc1cc(C(=O)N2CC(O)C(CS(=O)(=O)N(C)C)C2)n(C)n1` (stereo unspecified), the “% Inhibition” value was -5% and the Z score is listed as 1.06.

For the compound `CCNc1ccnc(NCc2cccc(CO)c2)n1`, the “% Inhibition” value was determined as 0% and the Z score is recorded as 0.

With `CN1CCN(c2ccc(NC(=O)[C@@H]3COCCN3CC(F)(F)F)nc2)CC1`, the “% Inhibition” value is on record as -11% and the Z score came out at 1.66.

`C[C@@H](c1cccc(-c2c[nH]c(C(=O)N3CCCCC3)c2)c1)N1CCCC1`: the “% Inhibition” value was -4% and the Z score was found to be 0.83.

Turning to `O=C([C@@H]1CCCN1C1CCNCC1)N1CCN(c2ccncc2)CC1`, the “% Inhibition” value is given as 0% and the Z score is on record as 0.05.

In the case of `CCCc1cccc(CNC2CCN(C3CCN(C)CC3)CC2)c1`, the “% Inhibition” value is recorded as 76% and the Z score is listed as -16.27.

Consider `CC(=O)N(Cc1noc(C(C)C)n1)[C@H]1CCN(c2ncnc3[nH]ccc23)C1`, for which the “% Inhibition” value was determined as 0% and the Z score is -0.03.

As for `O=C(CCN1Cc2ccccc2C1=O)NCc1nc(-c2cnccn2)n[nH]1`, the “% Inhibition” value is recorded as -2% and the Z score worked out at 0.33.

Regarding `CN(C)c1ccc(N[C@H]2CCCN(C(=O)c3cnccc3N(C)C)CC2)cn1`, the “% Inhibition” value is -7% and the Z score was found to be 1.32.

As for `O=C1C[C@H](CNc2nccc(-c3ccccn3)n2)CN1C1CCCC1`, the “% Inhibition” value turned out to be 1% and the Z score is -0.17.

Turning to `C1CC2CCC(NC3CCC4(CCNCC4)CC3)C2C1` (stereo unspecified), the “% Inhibition” value is given as -3% and the Z score worked out at 0.52.

In the case of `CN(CCNS(C)(=O)=O)Cc1cn(C)nc1C(F)(F)F`, the “% Inhibition” value was -5% and the Z score is on record as 1.03.

As to `COCC(=O)N1CCc2c(NC(=O)C(C)(C)F)cccc21`, the “% Inhibition” value is on record as -1% and the Z score was 0.14.

`O=C(c1nc2ccccn2c1Br)N1CC[C@@H](F)C1`: the “% Inhibition” value is on record as -4% and the Z score is given as 0.89.

Take `COCCN1CC[C@H](CN(C)c2ccnc3cc(Cl)ccc23)C1`: the “% Inhibition” value is reported as 98% and the Z score is on record as -17.

For the compound `Cc1[nH]c2ccc(Cl)cc2c1CCNC(=O)[C@@H]1CC2(CCNCC2)CN1`, the “% Inhibition” value is -8% and the Z score was found to be 1.39.

As to `Cc1cc(C)c(-c2csc(Nc3ncnc4[nH]ncc34)n2)cc1C`, the “% Inhibition” value amounted to 33% and the Z score is recorded as -4.97.

On to `Cc1cc2c(cc1C(=O)NCCCc1ccncc1)OCCO2`, for which the “% Inhibition” value is on record as -8% and the Z score is listed as 1.32.

As for `CC[C@@H](CNc1cc(N2CCCCC2)ncn1)N1CCN(C)CC1`, the “% Inhibition” value was -7% and the Z score was determined as 1.21.

For the compound `COc1ccc(C(=O)Nc2ccc(-c3csc(Nc4cccnc4)n3)cc2)cc1F`, the “% Inhibition” value is reported as -3% and the Z score is 0.53.

Regarding `O=S(=O)(NC[C@H]1CCOC2(CCC2)C1)c1ccccc1Br`, the “% Inhibition” value was -1% and the Z score was 0.1.

`COc1cc(N[C@H]2CCCN(Cc3cc(-c4cnn(C)c4)no3)C2)cc(OC)c1`: the “% Inhibition” value is on record as 4% and the Z score was -0.64.

With `c1cn(-c2cc(NCc3ccnc(OC4CCCC4)c3)ncn2)cn1`, the “% Inhibition” value is listed as -6% and the Z score turned out to be 1.1.

With `CC(=O)N1CCN(Cc2cccc(-c3cncc(-n4cnc(C)c4)c3)c2)CC1`, the “% Inhibition” value is -6% and the Z score amounted to 1.18.

As to `CC(C)NC(=O)c1ccnc(NCCCN2CCCC[C@@H]2CO)c1`, the “% Inhibition” value is on record as -7% and the Z score is 1.08.

Take `COc1cccc(OCc2cc(C(=O)N(C)Cc3nc4ccccc4o3)no2)c1`: the “% Inhibition” value is on record as -2% and the Z score is 0.35.

`OCC1CCCN1CCCCNC1CC2(CCC2)Oc2ccccc21` (stereo unspecified): the “% Inhibition” value was found to be 23% and the Z score is on record as -5.06.

For the compound `CCN(CCCN1CCCC1)C(=O)NCCN1CCC(N(C)C)CC1`, the “% Inhibition” value is -10% and the Z score is 2.

Regarding `Brc1ccc(CNc2nc3ccccc3[nH]2)c2ncccc12`, the “% Inhibition” value is recorded as 12% and the Z score is listed as -1.77.

Consider `Cc1ccc2[nH]c3c(c2c1)CCCC3NC1CC2CCC1O2` (stereo unspecified), for which the “% Inhibition” value is -7% and the Z score came to 1.25.

The values above are taken from ChEMBL document CHEMBL5308541, “MAIP: An Open-Source Tool to Enrich High-Throughput Screening Output and Identify Novel, Druglike Molecules with Antimalarial Activity” (ACS Med Chem Lett, 2023).
